Sequences and labels used below:
T1: RBFOX1 RRM RbFoxmut (Fox-RRM*) (Homo sapiens, UniProt Q9NWB1 109-208, R118D;E147R;N151S;E152T)
T1 sequence: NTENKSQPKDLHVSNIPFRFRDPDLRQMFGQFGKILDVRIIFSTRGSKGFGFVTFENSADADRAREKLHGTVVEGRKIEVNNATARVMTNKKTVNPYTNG

B1: UCUCUCG (DNA:RNA)
RNA: GGGAGACCGGAAUUCAGAUUGUCCUCUCUCGUUAAAUCCCGUCGUAGCCACCA
DNA 1: CAATCTGAATTCCGGTCTCCC
DNA 2: TGGTGGCTACGACGGGATT
B2: UAUUCCC (DNA:RNA)
RNA: B1 RNA with C26A, C28U, U29C, G31C
DNA 1: CAATCTGAATTCCGGTCTCCC
DNA 2: TGGTGGCTACGACGGGATT
B3: UGUAUGU (DNA:RNA)
RNA: B1 RNA with C26G, C28A, C30G, G31U
DNA 1: CAATCTGAATTCCGGTCTCCC
DNA 2: TGGTGGCTACGACGGGATT
B4: CUCCAAG (DNA:RNA)
RNA: B1 RNA with U25C, C26U, U27C, U29A, C30A
DNA 1: CAATCTGAATTCCGGTCTCCC
DNA 2: TGGTGGCTACGACGGGATT
B5: ACAGUUU (DNA:RNA)
RNA: B1 RNA with U25A, U27A, C28G, C30U, G31U
DNA 1: CAATCTGAATTCCGGTCTCCC
DNA 2: TGGTGGCTACGACGGGATT
B6: UCACAUC (DNA:RNA)
RNA: B1 RNA with U27A, U29A, C30U, G31C
DNA 1: CAATCTGAATTCCGGTCTCCC
DNA 2: TGGTGGCTACGACGGGATT
B7: UUUACUA (DNA:RNA)
RNA: B1 RNA with C26U, C28A, U29C, C30U, G31A
DNA 1: CAATCTGAATTCCGGTCTCCC
DNA 2: TGGTGGCTACGACGGGATT
B8: GAACGGA (DNA:RNA)
RNA: B1 RNA with U25G, C26A, U27A, U29G, C30G, G31A
DNA 1: CAATCTGAATTCCGGTCTCCC
DNA 2: TGGTGGCTACGACGGGATT
B9: UGACCAG (DNA:RNA)
RNA: B1 RNA with C26G, U27A, U29C, C30A
DNA 1: CAATCTGAATTCCGGTCTCCC
DNA 2: TGGTGGCTACGACGGGATT
B10: UAGUUCA (DNA:RNA)
RNA: B1 RNA with C26A, U27G, C28U, G31A
DNA 1: CAATCTGAATTCCGGTCTCCC
DNA 2: TGGTGGCTACGACGGGATT
B11: GUAAGCG (DNA:RNA)
RNA: B1 RNA with U25G, C26U, U27A, C28A, U29G
DNA 1: CAATCTGAATTCCGGTCTCCC
DNA 2: TGGTGGCTACGACGGGATT
B12: GGGCGGC (DNA:RNA)
RNA: B1 RNA with U25G, C26G, U27G, U29G, C30G, G31C
DNA 1: CAATCTGAATTCCGGTCTCCC
DNA 2: TGGTGGCTACGACGGGATT
B13: UCCCUAG (DNA:RNA)
RNA: B1 RNA with U27C, C30A
DNA 1: CAATCTGAATTCCGGTCTCCC
DNA 2: TGGTGGCTACGACGGGATT
B14: CCAUGGC (DNA:RNA)
RNA: B1 RNA with U25C, U27A, C28U, U29G, C30G, G31C
DNA 1: CAATCTGAATTCCGGTCTCCC
DNA 2: TGGTGGCTACGACGGGATT
B15: CCUGCAU (DNA:RNA)
RNA: B1 RNA with U25C, C28G, U29C, C30A, G31U
DNA 1: CAATCTGAATTCCGGTCTCCC
DNA 2: TGGTGGCTACGACGGGATT
B16: GAACGCU (DNA:RNA)
RNA: B1 RNA with U25G, C26A, U27A, U29G, G31U
DNA 1: CAATCTGAATTCCGGTCTCCC
DNA 2: TGGTGGCTACGACGGGATT
B17: CUGGCUG (DNA:RNA)
RNA: B1 RNA with U25C, C26U, U27G, C28G, U29C, C30U
DNA 1: CAATCTGAATTCCGGTCTCCC
DNA 2: TGGTGGCTACGACGGGATT
B18: CGGCCUA (DNA:RNA)
RNA: B1 RNA with U25C, C26G, U27G, U29C, C30U, G31A
DNA 1: CAATCTGAATTCCGGTCTCCC
DNA 2: TGGTGGCTACGACGGGATT
B19: UCGGAGU (DNA:RNA)
RNA: B1 RNA with U27G, C28G, U29A, C30G, G31U
DNA 1: CAATCTGAATTCCGGTCTCCC
DNA 2: TGGTGGCTACGACGGGATT
B20: CGUGAGU (DNA:RNA)
RNA: B1 RNA with U25C, C26G, C28G, U29A, C30G, G31U
DNA 1: CAATCTGAATTCCGGTCTCCC
DNA 2: TGGTGGCTACGACGGGATT

Positions count from the first letter of the chain named. This is one part of the list.

The target of this experiment is T1, RBFOX1 RRM RbFoxmut (Fox-RRM*). In words: EMSA; HiTS-Eq, 1 nM pool, 10 min; buffer printed only for the single-RNA assays: 10 mM Tris pH 7.5, 150 mM NaCl, 3.4 mM EDTA, 0.001% NP-40, 30 C. Particulars: tags: His6 N-terminal (pET28a); label: 5' 32P. The method, boiled down: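 These values rest on relative association constants, computed from read-count changes of each RNA species versus the control reaction and normalised to the cognate motif. Reads came from free RNA recovered by 8% native PAGE after purified RbFox RRM (wild type or mutant) at increasing concentrations was equilibrated for 10 min in 50 µL with 1 nM of a 5′-radiolabelled pool with 7 randomized nucleotides and DNA-annealed flanks.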
For the molecule B1, the binding signal is 0.0757 KA relative to UGCAUGU.
Consider B2, for which the binding signal was 0.0619 KA relative to UGCAUGU.
For B3, the binding signal is 0.914 KA relative to UGCAUGU.
Next, B4: 0.112 KA relative to UGCAUGU; B5: 0.0846 KA relative to UGCAUGU; B6: 0.0791 KA relative to UGCAUGU.
For the molecule B7, the binding signal is 0.12 KA relative to UGCAUGU.
For B8 the value was 0.0858 KA relative to UGCAUGU; for B9, 0.0694 KA relative to UGCAUGU.
Next, B10: 0.137 KA relative to UGCAUGU; B11: 0.118 KA relative to UGCAUGU; B12: 0.0913 KA relative to UGCAUGU.
For B13 the value was 0.131 KA relative to UGCAUGU; for B14, 0.0829 KA relative to UGCAUGU; for B15, 0.139 KA relative to UGCAUGU.
Regarding B16, the binding signal was 0.135 KA relative to UGCAUGU.
As for B17, the binding signal is 0.431 KA relative to UGCAUGU.
Next, B18: 0.0776 KA relative to UGCAUGU; B19: 0.104 KA relative to UGCAUGU.
Consider B20, for which the binding signal is 0.156 KA relative to UGCAUGU.

For the origin of these results see PMC9911399, “Two distinct binding modes provide the RNA-binding protein RbFox with extraordinary sequence specificity”.
